# Reference: a collection of fitness landscapes (doi:10.1126/science.1257360)
# This is one part of the list.
# B1: PhoQ; a variant is named by its letters at X, in order, P23837 (parent)
# chain: MKKLLRLFFPLSLRVRFLLATAAVVLVLSLAYGMVALIGYSVSFDKTTFRLLRGESNLFYTLAKWENNKLHVELPENIDKQSPTMTLIYDENGQLLWAQRDVPWLMKMIQPDWLKSNGFHEIEADVNDTSLLLSGDHSIQQQLQEVREDDDDAEMTHSVAVNVYPATSRMPKLTIVVVDTIPVELKSSYMVWSWFIYVLSANLLLVIPLLWVAAWWSLRPIEALAKEVRELEEHNRELLNPATTRELTSLVRNLNRLLKSERERYDKYRTTLTDLTHSLKTPLXXLQXXLRSLRSEKMSVSDAEPVMLEQISRISQQIGYYLHRASMRGGTLLSRELHPVAPLLDNLTSALNKVYQRKGVNISLDISPEISFVGEQNDFVEVMGNVLDNACKYCLEFVEISARQTDEHLYIVVEDDGPGIPLSKREVIFDRGQRVDTLRPGQGVGLAVAREITEQYEGKIVAGESMLGGARMEVIFGRQHSAPKDE
# Variants of: B1
# Assay: enrichment ratio after two sorts for PhoP signalling (ratio (wild type AVST 3.29)); higher = more functional
# Settings: with PhoP (E. coli)
row,Variant,enrichment ratio
1,SGMC,12.8
2,MFLH,≤ 0.25
3,QNEW,≤ 0.25
4,VSTT,≤ 0.25
5,SIVG,9.05
6,HPSH,≤ 0.25
7,VQQF,≤ 0.25
8,QAEW,≤ 0.25
9,PMHH,≤ 0.25
10,HHVL,≤ 0.25
11,TPPA,≤ 0.25
12,TLPI,≤ 0.25
13,VLRI,≤ 0.25
14,FDAC,≤ 0.25
15,TGFS,1.93
16,TPRY,≤ 0.25
17,SRSM,0.977
18,MLYK,≤ 0.25
19,FKTI,≤ 0.25
20,KSCM,≤ 0.25
21,TTYN,12.5
22,PVMC,≤ 0.25
23,RRHA,≤ 0.25
24,WNGL,≤ 0.25

row,Variant,enrichment ratio
1,GFVM,≤ 0.25
2,CPSS,≤ 0.25
3,REVS,≤ 0.25
4,VASV,0.45
5,VHAN,≤ 0.25
6,IGSK,≤ 0.25
7,EQHT,≤ 0.25
8,AGAT,11.3
9,AAVH,0.944
10,NMRR,≤ 0.25
11,GCMQ,6.31
12,QGDH,≤ 0.25
13,HKRI,≤ 0.25
14,YWYR,≤ 0.25
15,NWLI,≤ 0.25
16,YNDH,≤ 0.25
17,NHHR,≤ 0.25
18,RQVV,≤ 0.25
19,HLHI,≤ 0.25
20,IITL,≤ 0.25
21,DGTI,≤ 0.25
22,EPPY,≤ 0.25
23,SRCW,≤ 0.25
24,TKII,5.85

row,Variant,enrichment ratio
1,YGKF,≤ 0.25
2,QICV,≤ 0.25
3,GRDQ,≤ 0.25
4,MYVG,≤ 0.25
5,NQSA,≤ 0.25
6,DYYC,≤ 0.25
7,NGLE,≤ 0.25
8,YNFT,≤ 0.25
9,IDNK,≤ 0.25
10,IQQP,≤ 0.25
11,QCML,≤ 0.25
12,ELGE,≤ 0.25
13,DVLF,≤ 0.25
14,KSSM,≤ 0.25
15,AHKS,≤ 0.25
16,WQYM,≤ 0.25
17,WYKQ,≤ 0.25
18,NHDF,≤ 0.25
19,IKKE,≤ 0.25
20,DAMY,≤ 0.25
21,FNKV,≤ 0.25
22,RMRH,≤ 0.25
23,ERVA,≤ 0.25
24,VKKV,≤ 0.25

row,Variant,enrichment ratio
1,NYWT,≤ 0.25
2,QAKR,≤ 0.25
3,GTSH,0.482
4,ISYE,≤ 0.25
5,EPWL,≤ 0.25
6,SWGL,≤ 0.25
7,VWAV,≤ 0.25
8,QGIV,≤ 0.25
9,MSLR,≤ 0.25
10,LAAM,≤ 0.25
11,SNYP,0.274
12,WAIS,≤ 0.25
13,WPPS,≤ 0.25
14,GGYR,≤ 0.25
15,GNYD,≤ 0.25
16,WKTT,≤ 0.25
17,WSYF,≤ 0.25
18,LDRA,≤ 0.25
19,EKNV,≤ 0.25
20,LTVL,≤ 0.25
21,QCDL,3.98
22,SIAP,≤ 0.25
23,DPYK,≤ 0.25
24,YFIW,≤ 0.25

row,Variant,enrichment ratio
1,QNRP,≤ 0.25
2,PCYV,≤ 0.25
3,GPIR,≤ 0.25
4,FVIN,≤ 0.25
5,FYGI,≤ 0.25
6,GMSM,5.43
7,PEES,≤ 0.25
8,AYDS,≤ 0.25
9,TIHM,≤ 0.25
10,LDQC,≤ 0.25
11,MLDN,≤ 0.25
12,LYVP,≤ 0.25
13,YGGC,≤ 0.25
14,MPNF,≤ 0.25
15,RQNI,≤ 0.25
16,ANCP,≤ 0.25
17,MDEH,≤ 0.25
18,DWGQ,≤ 0.25
19,RLPH,≤ 0.25
20,RTMH,≤ 0.25
21,DKAH,≤ 0.25
22,HLCR,≤ 0.25
23,RYDI,≤ 0.25
24,HCGW,≤ 0.25

row,Variant,enrichment ratio
1,MMTT,≤ 0.25
2,DLDL,≤ 0.25
3,VTND,≤ 0.25
4,WYPD,≤ 0.25
5,QGVL,2.7
6,FWAS,≤ 0.25
7,TTIV,0.549
8,TYHS,≤ 0.25
9,EPPA,≤ 0.25
10,GQPW,≤ 0.25
11,AYLN,≤ 0.25
12,GKHM,≤ 0.25
13,QRLT,≤ 0.25
14,VSEN,≤ 0.25
15,QAWM,10.8
16,QNRN,≤ 0.25
17,NYFW,≤ 0.25
18,ILEY,≤ 0.25
19,QHVR,≤ 0.25
20,KAQP,≤ 0.25
21,PDGG,≤ 0.25
22,EADW,≤ 0.25
23,DDAP,≤ 0.25
24,WFGK,≤ 0.25

row,Variant,enrichment ratio
1,RREH,≤ 0.25
2,IPSP,≤ 0.25
3,FTMF,9.72
4,SADN,≤ 0.25
5,TVVF,≤ 0.25
6,MQGS,≤ 0.25
7,WYHQ,≤ 0.25
8,SLVE,≤ 0.25
9,VPSM,≤ 0.25
10,TGTH,2.57
11,EEVQ,≤ 0.25
12,DTGD,≤ 0.25
13,PVNI,≤ 0.25
14,HNKY,≤ 0.25
15,IFTY,≤ 0.25
16,FHDI,≤ 0.25
17,QMLF,≤ 0.25
18,PYMP,≤ 0.25
19,CDCR,≤ 0.25
20,MTNR,≤ 0.25
21,SIET,4.74
22,FNVD,≤ 0.25
23,FHIY,≤ 0.25
24,NFYR,≤ 0.25

row,Variant,enrichment ratio
1,YEGG,≤ 0.25
2,KIKH,≤ 0.25
3,SSPP,≤ 0.25
4,RRVM,≤ 0.25
5,SKHF,≤ 0.25
6,HYTW,≤ 0.25
7,PPGA,≤ 0.25
8,SCSM,14.5
9,MYAL,≤ 0.25
10,AYPH,≤ 0.25
11,SVIG,8.65
12,WKYE,≤ 0.25
13,SSLI,18.9
14,VPLI,0.303
15,KQNK,≤ 0.25
16,HDAK,≤ 0.25
17,NDMD,≤ 0.25
18,GLCE,2.44
19,GHDN,≤ 0.25
20,HKIY,≤ 0.25
21,EMHA,≤ 0.25
22,TLAV,11.9
23,WNYP,≤ 0.25
24,VVWI,≤ 0.25

row,Variant,enrichment ratio
1,ADTM,≤ 0.25
2,VYGF,≤ 0.25
3,ALYR,≤ 0.25
4,HRNY,≤ 0.25
5,VASL,1.74
6,DGQT,≤ 0.25
7,INMM,7.98
8,LQCY,≤ 0.25
9,KMNV,≤ 0.25
10,VSFA,≤ 0.25
11,DAFT,≤ 0.25
12,EKNR,≤ 0.25
13,WPQL,≤ 0.25
14,TNND,≤ 0.25
15,HWCQ,≤ 0.25
16,INVH,≤ 0.25
17,QRQL,≤ 0.25
18,SYVY,≤ 0.25
19,RSFC,≤ 0.25
20,GTSK,≤ 0.25
21,HGWD,≤ 0.25
22,TYFS,≤ 0.25
23,KTDV,≤ 0.25
24,WHPH,≤ 0.25

row,Variant,enrichment ratio
1,YQWT,≤ 0.25
2,PNIF,≤ 0.25
3,HGQF,≤ 0.25
4,NWVL,≤ 0.25
5,TRCI,5.39
6,HLPK,≤ 0.25
7,YDYT,≤ 0.25
8,DVVV,≤ 0.25
9,EHDF,≤ 0.25
10,PCFI,≤ 0.25
11,WHSQ,≤ 0.25
12,IACY,≤ 0.25
13,QLTY,≤ 0.25
14,VFSF,≤ 0.25
15,GNFV,≤ 0.25
16,ATSL,5.96
17,TVVW,≤ 0.25
18,NWYM,≤ 0.25
19,LAIY,≤ 0.25
20,ECLE,≤ 0.25
21,FDPT,≤ 0.25
22,AVMA,5.91
23,CLMY,≤ 0.25
24,TCTS,17.5

row,Variant,enrichment ratio
1,VVKD,≤ 0.25
2,KFLC,≤ 0.25
3,SMYN,≤ 0.25
4,YTTR,0.294
5,IGDP,≤ 0.25
6,KEGY,≤ 0.25
7,GQIA,≤ 0.25
8,DEAM,≤ 0.25
9,VKHK,≤ 0.25
10,ETCD,≤ 0.25
11,QEKS,≤ 0.25
12,HNYW,≤ 0.25
13,DKYQ,≤ 0.25
14,VQCQ,≤ 0.25
15,EYGQ,≤ 0.25
16,EYGK,≤ 0.25
17,QKLF,≤ 0.25
18,NMTT,≤ 0.25
19,WGAM,≤ 0.25
20,IKYK,≤ 0.25
21,KCSV,≤ 0.25
22,DLFA,≤ 0.25
23,YFYW,≤ 0.25
24,DRPM,≤ 0.25

row,Variant,enrichment ratio
1,QILL,≤ 0.25
2,FMHG,≤ 0.25
3,SQEE,≤ 0.25
4,AGCC,16.1
5,IPHP,≤ 0.25
6,TLAY,≤ 0.25
7,KCAG,≤ 0.25
8,QLVF,≤ 0.25
9,GIQF,≤ 0.25
10,HPCR,≤ 0.25
11,WAPK,≤ 0.25
12,MEAW,≤ 0.25
13,YDWD,≤ 0.25
14,GPTD,≤ 0.25
15,TAEK,≤ 0.25
16,TKSP,≤ 0.25
17,LRAV,≤ 0.25
18,LPQP,≤ 0.25
19,IPIA,≤ 0.25
20,FDHA,≤ 0.25
21,VSWG,≤ 0.25
22,NIPK,≤ 0.25
23,YVSG,0.371
24,HLSD,≤ 0.25

row,Variant,enrichment ratio
1,HLPD,≤ 0.25
2,NWCI,≤ 0.25
3,QVYK,9.39
4,SWPL,≤ 0.25
5,SQQH,≤ 0.25
6,GEAS,9.56
7,TDGT,3.27
8,LLQP,≤ 0.25
9,EPSR,≤ 0.25
10,QPQF,≤ 0.25
11,PDFC,≤ 0.25
12,RLVS,≤ 0.25
13,QPPL,≤ 0.25
14,IGMG,≤ 0.25
15,QAHQ,≤ 0.25
16,LWPY,≤ 0.25
17,QGYG,3.64
18,VFSC,≤ 0.25
